Experimental data published in a collection of fitness landscapes (doi:10.1038/s41467-024-54723-y).
In all, about 18,000 sequences were measured (“TetR repression strength (sort-seq, GFP reporter)”: median about 0.23, highest 2% from about 0.68 on). The list shows a part of the results.

biological target: TetR (class B, Tn10) (UniProt P04483); assay: TetR repression strength (sort-seq, GFP reporter) (relative to tetO2 = 1); higher = stronger repression; settings: E. coli
Summary of the method: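 Escherichia coli SIG10-MAX cells carried a low-copy plasmid library in which eight operator positions were randomized between a constitutive promoter and sfGFP, and TetR was expressed constitutively. After 5 h of growth at 37 °C in LB with 50 µg/mL chloramphenicol, 10^6 cells were FACS-sorted into 13 fluorescence bins, and each bin was Illumina-sequenced. Repression strength was the top bin index plus one minus the read-weighted mean bin, divided by the value for the unaltered operator. Across three independent transformations, only library members with ≥30 reads in every replicate and a CV ≤0.5 were averaged.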

Sequence of UniProt P04483 (P04483 whole entry): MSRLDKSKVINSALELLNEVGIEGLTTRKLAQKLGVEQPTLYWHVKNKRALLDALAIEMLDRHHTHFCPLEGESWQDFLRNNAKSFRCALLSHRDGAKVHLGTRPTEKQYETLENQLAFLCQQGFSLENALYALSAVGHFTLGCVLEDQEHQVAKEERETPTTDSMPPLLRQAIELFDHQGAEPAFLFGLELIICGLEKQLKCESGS

| Sequence | TetR repression strength |
| --- | --- |
| TCCCGTCTAGTCGCGGAGA | 0.211 |
| TCCCGAGTAGTGTCCGAGA | 0.17 |
| TCCCATGAAGTGTCAGAGA | 0.381 |
| TCCCTTTAAGTGGGCGAGA | 0.274 |
| TCCCCTATAGTGGGGGAGA | 0.109 |
| TCCCTAGTAGTAGAGGAGA | 0.126 |
| TCCCGGAGAGTCAGTGAGA | 0.242 |
| TCCCAAAAAGTGGTGGAGA | 0.203 |
| TCCCGGGTAGTGCGAGAGA | 0.273 |
| TCCCTTGTAGTGAGCGAGA | 0.138 |
| TCCCATGGAGTATAAGAGA | 0.383 |
| TCCCTCGTAGTGAAGGAGA | 0.185 |
| TCCCTGCCAGTAAGGGAGA | 0.266 |
| TCCCGCGAAGTGATCGAGA | 0.252 |
| TCCCGAGAAGTGAAAGAGA | 0.0859 |
| TCCCTAAAAGTAACTGAGA | 0.464 |
| TCCCTGGGAGTGCCGGAGA | 0.0926 |
| TCCCTTATAGTAGTGGAGA | 0.0817 |
| TCCCGCAAAGTGGTAGAGA | 0.28 |
| TCCCTTGCAGTACGGGAGA | 0.1 |
| TCCCTCGGAGTAGGTGAGA | 0.244 |
| TCCCAGGGAGTGAATGAGA | 0.272 |
| TCCCTGGGAGTGTGCGAGA | 0.246 |
| TCCCAACCAGTGATGGAGA | 0.288 |
| TCCCCTGGAGTGGCCGAGA | 0.166 |
| TCCCATCTAGTCCGTGAGA | 0.174 |

| Sequence | TetR repression strength |
| --- | --- |
| TCCCTCTTAGTGTGCGAGA | 0.502 |
| TCCCCGCTAGTACTGGAGA | 0.24 |
| TCCCTCAGAGTTGAGGAGA | 0.287 |
| TCCCCTGGAGTACTGGAGA | 0.0983 |
| TCCCGGAAAGTAAGCGAGA | 0.0296 |
| TCCCGCCGAGTAGCGGAGA | 0.244 |
| TCCCGAACAGTGAATGAGA | 0.315 |
| TCCCTAGAAGTGCCAGAGA | 0.393 |
| TCCCAGATAGTGTCGGAGA | 0.125 |
| TCCCTGTGAGTCCCGGAGA | 0.0461 |
| TCCCATCAAGTGGGAGAGA | 0.187 |
| TCCCGACCAGTCGAAGAGA | 0.203 |
| TCCCTAGTAGTTGTGGAGA | 0.283 |
| TCCCGGGTAGTATAGGAGA | 0.175 |
| TCCCACTTAGTGCGCGAGA | 0.226 |
| TCCCCGGGAGTGGGCGAGA | 0.993 |
| TCCCATTCAGTGACGGAGA | 0.255 |
| TCCCCCTCAGTTGTAGAGA | 0.237 |
| TCCCTTATAGTGTGCGAGA | 0.0407 |
| TCCCCAGGAGTGAAAGAGA | 0.156 |
| TCCCGGCAAGTGCTCGAGA | 0.114 |
| TCCCGACGAGTGGGTGAGA | 0.195 |
| TCCCAAATAGTGTCGGAGA | 0.248 |
| TCCCATATAGTATATGAGA | 0.455 |
| TCCCCATCAGTAACGGAGA | 0.304 |
| TCCCTAACAGTGGTAGAGA | 0.415 |

| Sequence | TetR repression strength |
| --- | --- |
| TCCCATTTAGTTCATGAGA | 0.278 |
| TCCCTAGCAGTCGTCGAGA | 0.213 |
| TCCCGGCTAGTGAAGGAGA | 0.585 |
| TCCCAGTCAGTACGAGAGA | 0.179 |
| TCCCATCAAGTGTCGGAGA | 0.134 |
| TCCCGATAAGTAGGTGAGA | 0.183 |
| TCCCATCAAGTATCTGAGA | 0.0968 |
| TCCCTGACAGTCGACGAGA | 0.271 |
| TCCCGGTTAGTTGTGGAGA | 0.232 |
| TCCCTGGTAGTTTGAGAGA | 0.211 |
| TCCCAGCGAGTGTGCGAGA | 0.164 |
| TCCCACTGAGTTCGAGAGA | 0.07 |
| TCCCACTTAGTTGGAGAGA | 0.155 |
| TCCCCGCCAGTTTATGAGA | 0.371 |
| TCCCCCATAGTGAGGGAGA | 0.0787 |
| TCCCGGCGAGTGCTTGAGA | 0.21 |
| TCCCAAGTAGTTAGGGAGA | 0.234 |
| TCCCTGTCAGTCAGAGAGA | 0.248 |
| TCCCCGAAAGTCTATGAGA | 0.212 |
| TCCCAACGAGTGGATGAGA | 0.203 |
| TCCCATCGAGTACGTGAGA | 0.323 |
| TCCCCCCGAGTTGTGGAGA | 0.314 |
| TCCCTTCGAGTGCAGGAGA | 0.3 |
| TCCCGTGTAGTACGTGAGA | 0.13 |
| TCCCGCAGAGTGTCGGAGA | 0.444 |
| TCCCCAACAGTGCGGGAGA | 0.15 |

| Sequence | TetR repression strength |
| --- | --- |
| TCCCTAGTAGTTGTCGAGA | 0.207 |
| TCCCTTATAGTGGAAGAGA | 0.048 |
| TCCCGCGTAGTGCCGGAGA | 0.138 |
| TCCCTTAGAGTTAGGGAGA | 0.112 |
| TCCCCTCAAGTCAAAGAGA | 0.342 |
| TCCCTGGGAGTGAAGGAGA | 0.179 |
| TCCCGTTCAGTCTGCGAGA | 0.175 |
| TCCCCTATAGTGGCTGAGA | 0.143 |
| TCCCATACAGTGTATGAGA | 0.0352 |
| TCCCAAGCAGTGGGAGAGA | 0.337 |
| TCCCAAGTAGTATAGGAGA | 0.263 |
| TCCCTAAAAGTCGAGGAGA | 0.276 |
| TCCCGTATAGTGCTGGAGA | 0.301 |
| TCCCTTTTAGTGGTTGAGA | 0.283 |
| TCCCATGAAGTAAGGGAGA | 0.284 |
| TCCCGCCCAGTGTGCGAGA | 0.217 |
| TCCCATTAAGTTCTTGAGA | 0.183 |
| TCCCTTAGAGTTAGTGAGA | 0.177 |
| TCCCTTAAAGTCCTAGAGA | 0.211 |
| TCCCTCCGAGTGTCTGAGA | 0.34 |
| TCCCCATGAGTAGGAGAGA | 0.0259 |
| TCCCAGTTAGTCGACGAGA | 0.257 |
| TCCCGGCGAGTGGACGAGA | 0.372 |
| TCCCCTAGAGTCTAAGAGA | 0.332 |
